Structures can show the parent of a compound that is named as a salt. ± gives the standard deviation of the averaged measurements. Hit rate of the full screen: of about 1,000 compounds, about 15 (2%) showed an effect of 50% or more. Some of the results follow.
Tested on: HFF
Assay: uninfected host cell viability relative to vehicle control; higher = less host cell toxicity
Details: 5 µM; 72 h; oxygen 21 %
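Note: confluent HFF monolayers, run in parallel with the Toxoplasma growth screen as a host toxicity counterscreen.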

Row | Compound | uninfected host cell viability [%]
1 | CC#CCOC(=O)C1=CCCN(C)C1 [Arecaidine but-2-ynyl ester tosylate] | 88 ± 1.3
2 | O=C(O)C1=CCCNC1 [Guvacine hydrochloride] | 89.4 ± 1.3
3 | CCOCC(O)COc1ccc(NC(=O)CC[S+](C)C)cc1 (stereo not drawn) [Suplatast tosylate] | 97.7 ± 1.6
4 | COc1cc(/C=C(\C#N)C(N)=O)cc(CSc2nc3ccccc3s2)c1O | 81.5 ± 3.5
5 | COc1ccc(C2CC(c3c(O)cc(C)oc3=O)=NCCS2)c(OC)c1 (stereo not drawn) | 80.95 ± 0.11
6 | c1cc2c(cc1C1CCCCC1)c1c3n2CCNC3CCC1 (stereo not drawn) [Tetrindole mesylate] | 90.7 ± 7.5
7 | CCN1CCC[C@H]1CNC(=O)c1c(OC)ccc(Br)c1OC [Remoxipride hydrochloride] | 87.6 ± 4.9
8 | CN(C)c1ccc(/C=C2/C(=O)Nc3ccccc32)cc1 | 80.41 ± 0.13
9 | N=C(N)S/C=C\C(=O)O [ZAPA sulphate] | 99.7 ± 2.3
10 | c1ccc(CN2CCC3(CCc4ccccc43)CC2)cc1 [L-693,403 maleate] | 96.5 ± 4.2
11 | C[C@@H]1C[C@H]2[C@@H]3CCC4=CC(=O)C=C[C@]4(C)[C@@]3(F)[C@@H](O)C[C@]2(C)[C@@]1(O)C(=O)CO [Dexamethasone] | 83.89 ± 0.36
12 | N=C(N)SCCc1c[nH]cn1 [Imetit dihydrobromide] | 88.6 ± 1.5
13 | O=C(O)CCCc1ccccc1 [sodium 4-Phenylbutyrate] | 100 ± 2.5
14 | CC(C)NCC(O)COc1ccc(CC(N)=O)cc1 (racemic) [(RS)-Atenolol] | 91.7 ± 6
15 | O=C1c2ccccc2C(Cc2ccnc(F)c2)(Cc2ccnc(F)c2)c2ccccc21 | 90.8 ± 1.9
16 | COCCOC(=O)C1=C(C)NC(C)=C(C(=O)OC/C=C/c2ccccc2)C1c1cccc([N+](=O)[O-])c1 (stereo not drawn) [Cilnidipine] | 85.8 ± 2.8
17 | CCCCN1CCC(CCC(=O)c2cc(Cl)c(N)cc2OC)CC1 | 85.2 ± 6.5
18 | O=C(O)/C=C/c1ccc(Cn2ccnc2)cc1 [Ozagrel hydrochloride] | 89.9 ± 5.5
19 | Cc1cc(/C(=C/Nc2ccc(Cl)cc2)C(=O)Nc2ccc(Cl)cc2)on1 | 86.9 ± 4.8
20 | CC1=Nc2ccc(Cl)cc2S(=O)(=O)N1 [Diazoxide] | 88.9 ± 0.94
21 | COC(=O)C1=C(C)NC(C)=C(C(=O)OCCCN2CCC(c3ccccc3)(c3ccccc3)CC2)[C@H]1c1cccc([N+](=O)[O-])c1 [(S)-(+)-Niguldipine hydrochloride] | 76.95 ± 0.17
22 | O=C(NCCO[N+](=O)[O-])c1cccnc1 [Nicorandil] | 85.5 ± 2.7
23 | C=C1/C(=C\C=C2/CCC[C@]3(C)[C@@H]([C@H](C)/C=C/[C@@H](O)C4CC4)CC[C@@H]23)C[C@@H](O)C[C@@H]1O [Calcipotriol] | 83.9 ± 3.1
